Reference: PubChem BioAssay AID1745853 (National Center for Advancing Translational Sciences (NCATS), 2022)
“And” between values parts separate entries of the source, which are not always exact repeats. Identical values can stand only once. Some of the results follow. Shown are side measurements of this screen, not its main read-out; they come without a call.

Assays:
Assay in all cases: Primary Screen for Target Class Profiling of Small Molecule Inhibitors of Methyltransferases
[1] = target: Glycine N-methyltransferase (Homo sapiens) (UniProt Q14749); conditions: purified enzyme, MTase-Glo SAH luminescence; measured here: GNMT inhibition; at 40 µM; stronger effect = lower value
Outline: (§1)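 Each enzyme was reacted with SAM and its substrate, with compounds tested once at 40 uM; SAH formed was read by MTase-Glo luminescence.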

[2] = target: Guanidinoacetate N-methyltransferase (Homo sapiens) (UniProt Q14353); conditions: purified enzyme, MTase-Glo SAH luminescence; measured here: GAMT inhibition; at 40 µM; stronger effect = lower value
Outline: as §1

[3] = target: Histamine N-methyltransferase (Homo sapiens) (UniProt P50135); conditions: purified enzyme, MTase-Glo SAH luminescence; measured here: HNMT inhibition; at 40 µM; stronger effect = lower value
Outline: as §1

[4] = target: Nicotinamide N-methyltransferase (Homo sapiens) (UniProt P40261); conditions: purified enzyme, MTase-Glo SAH luminescence; measured here: NNMT inhibition; at 40 µM; stronger effect = lower value
Outline: as §1

[5] = target: Phenylethanolamine N-methyltransferase (Homo sapiens) (UniProt P11086); conditions: purified enzyme, MTase-Glo SAH luminescence; measured here: PNMT inhibition; at 40 µM; stronger effect = lower value
Outline: as §1
% is scaled to controls: 0 for no effect and ±100 for the full control effect.

Row | SMILES | activity change, negative = inhibition [1] | activity change, negative = inhibition [2] [%] | activity change, negative = inhibition [3] | activity change, negative = inhibition [4] | activity change, negative = inhibition [5]
1 | CCn1ncc(N2CCC(NC(=O)c3ccccc3)CC2)cc1=O | -2.77% | -4.77 | -2% | -8.66% | -1.16%
2 | Cc1cn[nH]c1 | 9.96% | 8.87 | 12.3% | -6.33% | -4.42%
3 | CCc1cc2c(cc3n2CC(C)(C(=O)NC2CCCCC2)N(c2ccc(C)c(C)c2)C3=O)s1 (stereo not given) | -3.27% | 3.01 | 4% | 7.94% | -0.574%
4 | O=C1NC2(CN([S+](=O)([O-])c3ccccc3)C2)Oc2ccccc21 | -8.27% | -2.97 | -6.33% | -21.8% | -4.23%
5 | COc1ccc(Cl)cc1NC(=O)CCC1CCCN(C(=O)c2ccnn2C)C1 (stereo not given) | -7.42% | -9.43 | -2.67% | -13.3% | -7.86%
6 | CN(C)C(=O)N1CCCn2nc(CNC(=O)Nc3cccc(C#N)c3)cc2C1 | -4.36% | -2.49 | -2.34% | -0.998% | -1.69%
7 | CC(C)=CCO[C@H]1CCOC[C@H]1NC(=O)CCc1ccc(=O)[nH]n1 | -1.62% | -2.18 | 1.52% | -0.189% | 0.021%
8 | Cc1ccc(C(=O)N2CCC(N3C(=O)C4(CCCC4)C3c3scnc3C)CC2)cn1 (stereo not given) | -0.915% | -1.31 | 0.232% | -6.26% | -3.81%
9 | CC(C)[C@@H](C(=O)O)N1Cc2c(cc(O)c3c2O[C@]2(C3)[C@H](C)CCC3C(C)(C)[C@H](O)[C@H](O)C[C@@]32C)C1=O (stereo not given in full) | -3.63% | 6.16 | -1.46% | -8.06% | 1.19%
10 | CC(CC12CCCN1C(=O)C1CCCN1C2=O)OC(N)=O (stereo not given) | 3.49% | 6.85 | 5.64% | -6.94% | 2.96%
11 | CC(C)C[C@@H]1NC(=O)[C@@H](Cc2ccccc2)NC(=O)C(CCCCCC(=O)C2CO2)NC(=O)[C@@H]2CCCCN2C1=O (stereo not given in full) | 2.17% | -4.82 | 13.5% | -10% | 1.71%
12 | CC(C)CC(=O)OC1OC=C(CO[C@@H]2O[C@H](CO)[C@@H](O)[C@H](O)[C@H]2O)C2CC(O)C(O)(CO)C12 (stereo not given in full) | -4.89% | -0.298 | -0.596% | -11.6% | 1.46%
13 | CCOCC(=O)N1C[C@@H](CO)[C@H](c2ccccn2)C1 | -0.559% | -3.8 | 0.332% | -1.78% | 0.136%
14 | CC1(C)C2CCC1(C)C(OC(=O)C(O)(CC(=O)O)CC(=O)O)C2 (stereo not given) | -0.124% | 1.55 | 1.35% | -10.7% | 3.11%
15 | CC1(C(=O)NCc2ccccc2)Cn2nc(-c3ccccc3)cc2C(=O)N1Cc1ccccc1 (stereo not given) | 0.517% | 1.07 | 1.38% | -3.48% | 2.46%
16 | CCN1C(=O)c2c(C(=O)NCc3cccc(Cl)c3)ncn2CC1(C)C(=O)NC1CCCC1 (stereo not given) | -5.55% | 3.67 | -5.31% | -5.8% | -0.297%

Row | SMILES | activity change, negative = inhibition [1] | activity change, negative = inhibition [2] [%] | activity change, negative = inhibition [3] | activity change, negative = inhibition [4] | activity change, negative = inhibition [5]
17 | Cn1c2c(c3ccccc31)C(C(=O)NCc1ccc(F)cc1)N(c1ccc(Cl)cc1)C(=O)CS2 (stereo not given) | -3.72% | 0 | 2.29% | 5.2% | 4.83%
18 | Cc1cc(C)n(Cc2ccc(C(=O)N3CCC(N4C[C@H](O)C[C@H]4C(=O)NC4CCCCC4)CC3)o2)n1 | -2.92% | 0.13 | 0.475% | -5.81% | 0.343%
19 | COc1ccccc1NC(=O)Cn1nc2n(CCc3ccccc3)c(=O)c3ccccc3n2c1=O | -1.24% | 5.38 | 1.6% | 0.955% | 2.51%
20 | O=C(Nc1ccccc1Br)NC1CCN(c2ccc(C(F)(F)F)cn2)C1 (stereo not given) | 1.87% | – | 0.724% | – | –
21 | CC1(C(=O)NC2CCCC2)Cn2c(cc3ccccc32)C(=O)N1c1ccc(CN2CCOCC2)cc1 (stereo not given) | -0.189% | -1.67 | -3.11% | 0.644% | -2.11%
22 | O=C(C1CCCN1[S+](=O)([O-])c1cccc(C(F)(F)F)c1)N1CCC(c2nc3ccncc3[nH]2)C1 (stereo not given) | -6.95% | -9.84 | -8.93% | -11.9% | -5.44%
23 | O=C(NC[C@H](O)CN1CCc2ccccc2C1)c1cc(NC2COC2)ncn1 | 1.26% | 1.72 | 6.28% | -20.1% | 2.16%
24 | COc1cc2ncnc(Sc3nnc(C)s3)c2cc1OC | – | 0.916 | – | -12.7% | -3.11%
25 | COc1ccccc1CN1C(=O)c2cc3occc3n2CC1(C)C(=O)NC1CCC(C)CC1 (stereo not given) | -0.903% | -18.7 | 5.35% | 3.81% | 0.484%
26 | CN1CCc2c(n(Cc3ccc(C(=O)NO)cc3)c3ccccc23)C1 | -7.44% and -2.82% | 5.54 | -72.1% and -80.3% | 1.47% and -8.33% | 30.8% and 0.364%
27 | CC(=O)OC1CC(O)(C(C)C)C2C(OC(=O)c3ccc(O)cc3)C=C(C)C(=O)CC12C (stereo not given) | 3.45% | 4.23 | 6.66% | -7.45% | 6.14%
28 | O=C(CCc1nnc2n(Cc3ccc(F)cc3)c(=O)c3ccccc3n12)Nc1cccc(Cl)c1 | -1.15% | 0 | 4.62% | -8% | -3.58%
29 | Cc1nc2ccccc2n1CCNS(=O)(=O)c1ccc(Cl)cc1 | -5.75% | 5.65 | -2.84% | 0.668% | 3.86%
30 | O=C(CC1CCCN(c2cn[nH]c(=O)c2)C1)N1CCCCCC1 (stereo not given) | -2.87% | -4.7 | -5.63% | -8.56% | -2.34%
31 | CCC1CCCCN1C(=O)Cn1c(=O)oc2cc(S(=O)(=O)N3CCCCC3)ccc21 (stereo not given) | 2.06% | 1.74 | 1.04% | 2.27% | -0.92%
